Source: article PMC6989696, “Arginine π-stacking drives binding to fibrils of the Alzheimer protein Tau” (Nature Communications, 2020)

Experiments:
[1] = target: T1, HA-tagged mouse Map7 M1-S227, wild type (mouse, UniProt O88735 1-227); test: co-sedimentation; Tau-RD* fibrils (20 µM of monomers, timepoint 24 h) reacted 1 h at 37 °C with 0.5 µM HA-Map7 M1-S227 in aggregation buffer; sucrose density gradient, 2.5 h at 200,000×g; dot blot with anti-HA and anti-FLAG; conditions: both partners purified
T1 construct: Map7, mouse, N-terminal truncation M1-S227; also called Map7 wt; HA-Map7 M1-S227; source: E. coli BL21 Rosetta 2, purified (Ni-IDA, cation exchange); not shown: HA, N-terminal, kept; His6-Smt, N-terminal, cleaved
T1 sequence (looked up): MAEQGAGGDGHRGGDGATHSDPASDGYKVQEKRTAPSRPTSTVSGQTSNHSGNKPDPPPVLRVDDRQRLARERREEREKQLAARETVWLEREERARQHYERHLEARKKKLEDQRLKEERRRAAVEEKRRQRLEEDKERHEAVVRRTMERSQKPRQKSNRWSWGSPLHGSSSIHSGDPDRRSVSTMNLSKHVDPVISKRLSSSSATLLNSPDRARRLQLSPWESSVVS

[2] = target: the molecule itself; test: sucrose density gradient centrifugation; Tau-RD* (37 µM of monomers) aggregated with heparin (Tau:heparin 4:1) at 37 °C for 1, 8, 24 h; 10-40% sucrose gradient; 2.5 h at 200,000×g; 12 fractions, dot blot with anti-FLAG

B1: FLAG-tagged Tau-RD-ΔK280 (human Tau Repeat Domain, […]) (domain or fragment)
chain: not shown
notes: Tau repeat domain (K18), human, […], with the pro-aggregation mutation ΔK280; the assay tells which state; also called K18; Tau fibrils; source: E. coli BL21 Rosetta 2, purified (POROS 20MC, cation exchange, SEC); not shown: FLAG, N-terminal, kept; His6-Smt, N-terminal, cleaved
B1: binds [1]; binds [2].
